# The BET-seq Pho4 binding data (Le et al. 2018)
# This is one part of the list. Values were computed here from the reads of four pooled replicates and scatter widely.
# Biological target: T1, Pho4 (S. cerevisiae) (UniProt P07270)
# T1 sequence: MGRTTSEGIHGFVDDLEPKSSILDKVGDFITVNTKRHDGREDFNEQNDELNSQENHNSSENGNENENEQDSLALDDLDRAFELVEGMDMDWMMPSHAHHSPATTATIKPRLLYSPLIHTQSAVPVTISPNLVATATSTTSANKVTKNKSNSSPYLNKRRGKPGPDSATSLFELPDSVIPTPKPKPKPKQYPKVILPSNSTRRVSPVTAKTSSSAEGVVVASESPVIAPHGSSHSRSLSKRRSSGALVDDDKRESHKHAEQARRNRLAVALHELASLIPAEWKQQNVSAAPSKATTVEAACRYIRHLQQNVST
# Test: relative binding free energy (BET-seq); higher = weaker binding
# Conditions: reference: library average
row,Sequence,relative binding free energy
1,TTTGCCACGTGATGAG,-0.05 kcal/mol
2,TGGGGCACGTGACTGA,0.08 kcal/mol
3,TTGATCACGTGTGTGG,0.18 kcal/mol
4,ATTGTCACGTGATATA,0.26 kcal/mol
5,TTAGTCACGTGTGCGA,0.08 kcal/mol
6,TAGGGCACGTGGCGAG,-0.16 kcal/mol
7,TAATTCACGTGGGCTT,0.2 kcal/mol
8,ATGAACACGTGGGTTG,-0.06 kcal/mol
9,AGGGGCACGTGTGTCG,-0.06 kcal/mol
10,TTATCCACGTGGTGTG,-0.09 kcal/mol
11,TGGGGCACGTGAACGT,0.17 kcal/mol
12,TATCGCACGTGAGGGC,0.14 kcal/mol
13,TGTTGCACGTGTGGTC,0.11 kcal/mol
14,GTTTACACGTGTATAA,0.23 kcal/mol
15,TAGTACACGTGTTTGC,-0.09 kcal/mol
16,CATTTCACGTGTTTTT,0.28 kcal/mol
17,GGTTTCACGTGTAACT,0.46 kcal/mol
18,TGTTACACGTGAAGTG,0.34 kcal/mol
19,GTCTGCACGTGGGCGT,-0.15 kcal/mol
20,AAATGCACGTGTTGTG,-0.03 kcal/mol
21,TATGACACGTGATTTT,0.32 kcal/mol
22,GGTGACACGTGGGTTC,-0.01 kcal/mol
23,GTTTGCACGTGGGGCT,-0.11 kcal/mol
24,TCGTTCACGTGAGCTT,0.37 kcal/mol
25,TGGTGCACGTGGTTAG,-0.14 kcal/mol

row,Sequence,relative binding free energy
1,TAGGCCACGTGGGAAT,-0.03 kcal/mol
2,GAATGCACGTGAGAGG,0.16 kcal/mol
3,TGCAACACGTGGGTGA,-0.09 kcal/mol
4,TCAGTCACGTGTCTGG,0.21 kcal/mol
5,TGAGGCACGTGAGTGC,0.26 kcal/mol
6,TGGGACACGTGAGCTG,0.25 kcal/mol
7,TCTAGCACGTGGTAGT,-0.11 kcal/mol
8,TGATGCACGTGGCGGG,-0.13 kcal/mol
9,CCGGACACGTGGAGGT,0.21 kcal/mol
10,ATCGTCACGTGGGAGA,0.14 kcal/mol
11,TTATGCACGTGTAAAG,-0.03 kcal/mol
12,TGTTTCACGTGCGGAC,0.17 kcal/mol
13,TTATACACGTGGTAGG,0.03 kcal/mol
14,GTTGGCACGTGGAGTC,0.04 kcal/mol
15,TTGGTCACGTGCTTGA,0.18 kcal/mol
16,GGAATCACGTGGGACG,0.13 kcal/mol
17,TTATTCACGTGTCATA,0.18 kcal/mol
18,GATTGCACGTGCATGT,-0.02 kcal/mol
19,TGTTCCACGTGTTAAT,0.03 kcal/mol
20,CTGTACACGTGGTTCG,0.12 kcal/mol
21,GGGCTCACGTGGGGTA,0.18 kcal/mol
22,TTTAACACGTGCGGTC,0.07 kcal/mol
23,ACCGGCACGTGTGGTT,0.02 kcal/mol
24,GTAGACACGTGCGGTG,-0.17 kcal/mol
25,AGAGGCACGTGGGATC,-0.05 kcal/mol

row,Sequence,relative binding free energy
1,CATGGCACGTGTGATG,-0.14 kcal/mol
2,CGGGGCACGTGACCGG,-0.12 kcal/mol
3,GTGATCACGTGTTCGG,0.28 kcal/mol
4,AGATACACGTGGTTTG,-0.13 kcal/mol
5,CTAGACACGTGGGTGT,-0.15 kcal/mol
6,TTCATCACGTGTGAAT,0.27 kcal/mol
7,CAGTTCACGTGTGGCG,0.2 kcal/mol
8,GGGTGCACGTGCAAGT,0.1 kcal/mol
9,AGGAGCACGTGGGCGA,-0.25 kcal/mol
10,TGTTACACGTGACATG,0.22 kcal/mol
11,GATGACACGTGAGTGT,0.31 kcal/mol
12,GTGGACACGTGTTGTC,0.12 kcal/mol
13,TCTTACACGTGTGTAG,0.16 kcal/mol
14,TCATGCACGTGATGTT,-0.1 kcal/mol
15,TGTTACACGTGCTAGT,0.1 kcal/mol
16,TTGATCACGTGGCTTT,0.05 kcal/mol
17,TTTTGCACGTGGTGCC,0.03 kcal/mol
18,CTTGGCACGTGTATAG,-0.08 kcal/mol
19,TATATCACGTGAGTTG,0.31 kcal/mol
20,TAATGCACGTGATCTG,0.07 kcal/mol
21,TGATTCACGTGTGTTA,0.35 kcal/mol
22,TCGTACACGTGTGAGA,0.4 kcal/mol
23,TGGGGCACGTGTCCGA,-0.12 kcal/mol
24,CAGGTCACGTGTGGAA,0.16 kcal/mol
25,AGAGGCACGTGCTTGT,-0.2 kcal/mol

row,Sequence,relative binding free energy
1,TGTGCCACGTGTCGGG,-0.1 kcal/mol
2,GAAGGCACGTGGGGTT,-0.11 kcal/mol
3,GCTGTCACGTGGGCGG,-0.02 kcal/mol
4,ATATTCACGTGAGGAT,0.32 kcal/mol
5,CGCGGCACGTGTTATG,-0.1 kcal/mol
6,GCGGTCACGTGGGGGA,-0.01 kcal/mol
7,ATGTGCACGTGAGCGT,0.03 kcal/mol
8,AGTTCCACGTGTTAAG,0.15 kcal/mol
9,TGCAGCACGTGATTGG,-0.01 kcal/mol
10,ATTGTCACGTGTTTGT,0.12 kcal/mol
11,TGCGTCACGTGTTTTG,0.03 kcal/mol
12,AAGCTCACGTGAGGGG,0.28 kcal/mol
13,TCGGGCACGTGAGCGG,-0.01 kcal/mol
14,GTTTACACGTGATGCA,0.2 kcal/mol
15,ATCTACACGTGTGGGT,0 kcal/mol
16,TTTAACACGTGGACTG,-0.1 kcal/mol
17,GAATACACGTGATGGG,0.23 kcal/mol
18,TTGGGCACGTGCCGTG,-0.22 kcal/mol
19,AGTTACACGTGTACGG,0.1 kcal/mol
20,ATCGTCACGTGCCGGG,0.18 kcal/mol
21,TGTATCACGTGTATCG,0.15 kcal/mol
22,TTACGCACGTGAGTAG,0.24 kcal/mol
23,GTAGGCACGTGGGTTG,-0.12 kcal/mol
24,AGTAGCACGTGAAGTT,0.33 kcal/mol
25,GACATCACGTGGGGGG,0.11 kcal/mol

row,Sequence,relative binding free energy
1,CTAGTCACGTGATTAG,0.31 kcal/mol
2,GTTAGCACGTGGGGCA,-0.22 kcal/mol
3,TGGGTCACGTGGTTTA,0.14 kcal/mol
4,ATAGTCACGTGGGGCG,-0.1 kcal/mol
5,CGCGCCACGTGGTGGA,-0.05 kcal/mol
6,TTGAGCACGTGTTTTC,-0.02 kcal/mol
7,GGATGCACGTGACTGG,0.01 kcal/mol
8,AATGGCACGTGGTTAA,-0.14 kcal/mol
9,GGTTTCACGTGCGGTC,0.25 kcal/mol
10,AAGGGCACGTGCAGTG,-0.09 kcal/mol
11,TTACTCACGTGTTGCT,0.3 kcal/mol
12,TTTCTCACGTGTGTTC,0.2 kcal/mol
13,TGGGCCACGTGAATGG,0.27 kcal/mol
14,CTCGGCACGTGGGCAG,-0.18 kcal/mol
15,AAAGTCACGTGTGTCG,0.01 kcal/mol
16,TAATGCACGTGTTTAG,-0.24 kcal/mol
17,GTCGGCACGTGTAATG,0.19 kcal/mol
18,CTGGGCACGTGTATGT,-0.05 kcal/mol
19,TGTGACACGTGAATAT,0.29 kcal/mol
20,ATGGTCACGTGAGCAG,0.21 kcal/mol
21,TGGAACACGTGGGGCT,-0.05 kcal/mol
22,ATTAACACGTGACGTG,0.23 kcal/mol
23,CTATGCACGTGGGTGC,-0.2 kcal/mol
24,AGGTACACGTGAGTGC,0.17 kcal/mol
25,TTACGCACGTGTTGAG,0 kcal/mol

row,Sequence,relative binding free energy
1,CATTGCACGTGGGAGT,0.02 kcal/mol
2,TGATTCACGTGATCTG,0.17 kcal/mol
3,TTAGACACGTGGTTTT,0 kcal/mol
4,CTTTACACGTGTATTG,-0.05 kcal/mol
5,TTTGACACGTGCGTTA,0.02 kcal/mol
6,AGTTGCACGTGGTTTA,-0.11 kcal/mol
7,AGAGTCACGTGCGGTT,0.01 kcal/mol
8,TGGGCCACGTGGGCTT,-0.13 kcal/mol
9,ATGTACACGTGGTTGC,0.13 kcal/mol
10,CTTGTCACGTGAGCGT,0.18 kcal/mol
11,TTTGTCACGTGGCGTT,0.02 kcal/mol
12,ATGGCCACGTGATATG,0.03 kcal/mol
13,TGAAGCACGTGTGGGA,0.03 kcal/mol
14,AGCGTCACGTGTGTGC,-0.05 kcal/mol
15,GCGTACACGTGGTGCG,0.04 kcal/mol
16,AGGGACACGTGTGTGG,0.04 kcal/mol
17,GGGATCACGTGGACGT,0.17 kcal/mol
18,TTACTCACGTGTGTTT,0.13 kcal/mol
19,GATGTCACGTGTTTCT,0.16 kcal/mol
20,GGCTTCACGTGTTAAA,0.28 kcal/mol
21,TTGGCCACGTGAGGAT,0.26 kcal/mol
